The results in this text go back to ChEMBL document CHEMBL4888484, “Replenishing the malaria drug discovery pipeline: Screening and hit evaluation of the MMV Hit Generation Library 1 (HGL1) against asexual blood stage Plasmodium falciparum ,using a nano luciferase reporter read-out” (2022).

The campaign covered roughly 150,000 compounds. About 540 (0.36%) showed an effect of 50% or more. Some of the results follow.

The test deals with Plasmodium falciparum. The test is described as follows: Primary screen in NF54 nanoGlo assay, in single point, at 2uM, 72h; a lower Z score goes with more inhibition. In kind it is functional, Erythrocyte. To be noted: timepoint 72 hour.
For the compound `FC(F)(F)c1cnc(N2CCC(c3nnc4n3CCC4)CC2)s1`, the % Inhibition (in general, the drop in the measured response relative to a control, in per cent) was -5% and the Z score worked out at 0.77.

On to `c1ccc(CNc2ncc(CN3CCCC[C@@H]3CN3CCCC3)cn2)cc1`, for which the “% Inhibition” value was -1% and the Z score was found to be 0.14.

For `CN(C)c1ccccc1C(=O)N1CCC(C(=O)N2CCCC2)CC1`, the “% Inhibition” value is 2% and the Z score is recorded as -0.3.

Turning to `CC(CS(C)(=O)=O)C(=O)N1C2C=C(c3ccccc3)CC1CC2` (centres undefined), the “% Inhibition” value is -3% and the Z score came out at 0.43.

For `Cc1ccc(C)c(CN(C)CC(=O)N(C)C)c1`, the “% Inhibition” value was -10% and the Z score was determined as 0.93.

For `C[C@@H](c1ccccc1)c1ncccc1C#N`, the “% Inhibition” value was -3% and the Z score came to 0.34.

`CN(C)C[C@H](O)Cn1cc(NC(=O)C(c2ccccc2)c2ccccc2)cn1`: the “% Inhibition” value is listed as -5% and the Z score came to 0.7.

Consider `O=C(NC[C@H]1CCCO1)Nc1cccc2c1CCCC2`, for which the “% Inhibition” value amounted to 3% and the Z score is listed as -0.55.

Take `COC(=O)C1CC(OC)CN1C(=O)Cc1cccc(C)c1` (centres undefined): the “% Inhibition” value is reported as -15% and the Z score came to 2.91.

With `Cc1nc2ccc(-n3ncnc3CCO)cc2s1`, the “% Inhibition” value is -5% and the Z score is listed as 0.96.

For the compound `O=C(NC1CCCC1CCO)c1ccncc1F` (centres undefined), the “% Inhibition” value is listed as -8% and the Z score worked out at 1.08.

Turning to `CC1CCC(Oc2cc(CNc3nccnc3C#N)ccn2)CC1` (centres undefined), the “% Inhibition” value was -10% and the Z score turned out to be 1.58.

For the compound `Cc1cc(CN2CCC(CCC(=O)NC3CC3)CC2)[nH]n1`, the “% Inhibition” value is reported as 2% and the Z score was -0.31.

For the compound `CC(=O)N[C@@H](CC(=O)N1CCc2nnc(N)cc2C1)c1ccccc1`, the “% Inhibition” value is recorded as -10% and the Z score was 1.54.

Regarding `Cc1cc(C)n(CCC(=O)NCc2nc3c(s2)CCCC3)c(=O)n1`, the “% Inhibition” value is on record as 8% and the Z score is reported as -1.38.

For the compound `COc1cc(NC(=O)N2CC(O)(C(F)(F)F)C2)ccn1`, the “% Inhibition” value is listed as 3% and the Z score was -0.45.

`CC[C@H]1CCCCN1Cc1nc(C)cc(O)n1`: the “% Inhibition” value is listed as -10% and the Z score is given as 1.91.

Consider `Cc1ccc(F)c(NS(=O)(=O)c2c(C)[nH]c(C)c2-c2nnc(C3CCC3)o2)c1`, for which the “% Inhibition” value was -3% and the Z score is 0.65.

Regarding `Cc1ccc(Cl)cc1N1CC[C@@H](C(=O)Nc2ccc(C(F)(F)F)cc2)C1=O`, the “% Inhibition” value is reported as -13% and the Z score was 1.99.

Turning to `CC(C)OCCCNC(=O)c1ccc2c(c1)nc1n2CC[C@H](C)C1`, the “% Inhibition” value was -4% and the Z score came to 0.63.

For the compound `CCOc1c(CN2CCC3(C2)OCCO3)c(C)nn1CC(C)C`, the “% Inhibition” value is recorded as -1% and the Z score worked out at 0.08.

For the compound `CCC=C(CCC)C(=O)N(C)CCCn1ccnc1`, the “% Inhibition” value is recorded as -11% and the Z score stood at 1.09.

As for `O=C(CCC(=O)NCCc1ccccc1)NCCc1ccccc1`, the “% Inhibition” value is -6% and the Z score was 0.81.

On to `CN(C)c1ccc(CNC(=O)C2CCN(c3nc4ccc(Cl)cc4[nH]3)CC2)cc1`, for which the “% Inhibition” value is 0% and the Z score is 0.05.

On to `O=C(c1ccccc1Nc1ccc(F)cc1)N1CCN(S(=O)(=O)c2ccc(F)c(F)c2)CC1`, for which the “% Inhibition” value is -10% and the Z score is 1.52.

On to `COc1cccn(CC(=O)N(C)C[C@]2(c3ccccc3)CC2(C)C)c1=O`, for which the “% Inhibition” value is recorded as 7% and the Z score was -1.

For the compound `O=C(NC1CCCCC1)NC1(CO)CCCC1`, the “% Inhibition” value was found to be 3% and the Z score is listed as -0.37.

For the compound `CCCN1CCCN(Cc2nc(N)nc(N(C)C)n2)CC1`, the “% Inhibition” value was 0% and the Z score is recorded as -0.01.

For the compound `CC(=O)N1C[C@@H]2CCN(S(=O)(=O)c3cccc(F)c3)C[C@]2(CO)C1`, the “% Inhibition” value was -12% and the Z score amounted to 1.96.

On to `COCC1(S(=O)(=O)Nc2cccc([C@@H](O)C(F)(F)F)c2)CC1`, for which the “% Inhibition” value is reported as 2% and the Z score is reported as -0.34.

With `Cc1ccc(-c2nonc2NC(=O)Cc2cccc3ccccc23)cc1C`, the “% Inhibition” value is -8% and the Z score was 1.1.

For the compound `CC(C)n1nccc1C(=O)NCc1nnc2ccc(Cl)cn12`, the “% Inhibition” value is -7% and the Z score is reported as 1.08.

Consider `O=C(CNC(=O)OCc1ccccc1)NCc1ccnc(N2CCCC2=O)c1`, for which the “% Inhibition” value was -7% and the Z score turned out to be 1.25.

With `COC(=O)c1cc(NC(=O)[C@H]2CCOC2)c2oc(Cc3ccccc3)nc2c1`, the “% Inhibition” value is given as 2% and the Z score is -0.3.

For `COc1ccc2c(c1)C[C@H](NC(=O)Nc1cc(Cl)ccc1C)CO2`, the “% Inhibition” value was -2% and the Z score was determined as 0.3.

In the case of `COCC(C)(C)NC(=O)[C@@H]1CCC(=O)N1C`, the “% Inhibition” value stood at 7% and the Z score is listed as -1.02.

Consider `Cc1nc(N(C)Cc2n[nH]c3c2CCCCC3)cc([C@H]2C[C@@H](O)C2)n1`, for which the “% Inhibition” value was -3% and the Z score was 0.55.

For `CN(C)C(=O)c1ccc(CNC(=O)c2ncc(F)cc2F)o1`, the “% Inhibition” value is recorded as -8% and the Z score is 1.01.

Turning to `CCN(CCC(=O)NCCC(C)C)C(=O)c1cnc(C)cn1`, the “% Inhibition” value was -4% and the Z score was 0.56.

Regarding `C[C@@H](C(=O)N1CCC(c2nc3c(s2)CCC3)CC1)c1cnn(C)c1`, the “% Inhibition” value is listed as -22% and the Z score is 2.79.

Consider `COc1ccc(CNC(=O)[C@H]2CCc3sc(C(=O)N(C)C)cc3C2)cc1`, for which the “% Inhibition” value was 33% and the Z score was -3.79.

For `Cc1cc(NC(=O)c2ccc(Cl)c(Cl)c2)nn1-c1ccc(C#N)cc1`, the “% Inhibition” value came out at 3% and the Z score was -0.44.
